Drawing on the supplement of paper PMC9446081, this text covers relative growth for 38 molecules.

Molecules are shown by their SMILES. Among all 39,000 compounds or so, about 220 (0.56%) showed activity. The list shows a part of the results.
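Note: static incubation at 37 °C against the wild-type strain, values averaged over two biological replicates.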

This test deals with Escherichia coli K-12 BW25113. Description: relative growth (OD600 normalised to plate interquartile mean) (fraction); higher = less growth inhibition, active = 0.2 or less. The following applies: 50 µM; LB; incubation time: overnight (16-24 h).
`CC(C)NC(=O)Nc1ccc2c(c1)C(=O)N([C@@H](C)CO)C[C@@H](C)[C@H](CN(C)Cc1ccc(Cl)c(Cl)c1)OCCCC[C@H](C)O2`: the relative growth was inactive: 0.994.
In the case of `CCOC(=O)c1c(CN2CCN(c3ccc(C)cc3)CC2)n(-c2ccccc2)c2cc(Br)c(OC)cc12`, the relative growth was inactive: 1.02.
Under `C[C@@H]1CN([C@H](C)CO)C(=O)c2cc(NC(=O)CCC(F)(F)F)ccc2O[C@H]1CN(C)C(=O)Nc1ccc(C(F)(F)F)cc1` stands inactive: 0.917.
For the molecule `CC1CCC2(C(=O)O)CCC3(C)C(=CCC4C5(C)CC(O)C(O)C(C)(CO)C5C(O)CC43C)C2C1C` (stereo not drawn), the relative growth was inactive: 1.11.
In the case of `C[C@H]1[C@H]([Si](C)(C)F)[C@@H](CCO)O[C@]12C(=O)N(Cc1cccc(N3C(=O)COc4ccccc43)c1)c1ccccc12`, the relative growth was inactive: 1.01.
Consider `C[C@H]1CN([C@@H](C)CO)C(=O)Cc2cc(NC(=O)c3ccncc3)ccc2O[C@@H]1CN(C)Cc1ccc(Oc2ccccc2)cc1`, for which the relative growth is inactive: 0.988.
Regarding `Cc1cc(C(=O)Nc2cccc3c2O[C@H](CN(C)S(=O)(=O)c2cn(C)cn2)[C@@H](C)CN([C@H](C)CO)C3=O)n(C)n1`, the relative growth is inactive: 0.903.
As for `CC(C)NC(=O)Nc1ccc2c(c1)CC(=O)N([C@@H](C)CO)C[C@H](C)[C@@H](CN(C)Cc1ccc(-c3ccccc3)cc1)O2`, the relative growth was inactive: 0.98.
Under `CC1OC(OC2C(Oc3cc(O)c4c(c3)OC(c3ccc(O)cc3)CC4=O)OC(CO)C(O)C2O)C(O)C(O)C1O` (stereo not drawn) stands inactive: 1.01.
For `O=C(COc1ccc(Cl)cc1Cl)NCCn1ncc2c(=O)n(Cc3cccc([N+](=O)[O-])c3)cnc21` the value was inactive: 1.06; for `CCc1ccc(NC(=N)N=C(N)N)cc1`, inactive: 0.969.
Under `COc1ccc(OCC(=O)NCC(=O)O)cc1` stands inactive: 0.974; under `Cc1ccc(S(=O)(=O)Nc2ccc3c(c2)C(=O)N([C@H](C)CO)C[C@@H](C)[C@@H](CN(C)Cc2ccc4c(c2)OCO4)OCCCC[C@H](C)O3)cc1`, inactive: 1.
Turning to `C[C@@H]1CN([C@H](C)CO)C(=O)c2cc(NS(=O)(=O)c3ccccc3)ccc2O[C@@H](C)CCCCO[C@H]1CN(C)C(=O)C1CCCCC1`, the relative growth is inactive: 1.
Take `CNC(=O)c1ccc(CN)cc1`: the relative growth was inactive: 1.01.
With `COCC#Cc1cnc2c(c1)C(=O)N([C@H](C)CO)C[C@H](C)[C@H](CN(C)C(=O)CN1CCOCC1)O2`, the relative growth is inactive: 0.97.
For `C[C@H]1CN([C@@H](C)CO)C(=O)c2cc(NC(=O)Cn3cnnn3)ccc2O[C@@H]1CN(C)S(=O)(=O)c1ccc(F)cc1`, the relative growth was inactive: 0.987.
Turning to `COc1cccc(S(=O)(=O)N(C)C[C@H]2OCc3cn(nn3)CCCC(=O)N([C@H](C)CO)C[C@@H]2C)c1`, the relative growth was inactive: 1.04.
Under `C[C@@H]1CN([C@H](C)CO)C(=O)c2cc(NC(=O)c3ccccc3)ccc2O[C@@H](C)CCCCO[C@@H]1CN(C)C(=O)c1ccccc1` stands inactive: 0.886.
As to `COc1ccc(S(=O)(=O)N(C)C[C@@H]2Oc3ccc(NS(=O)(=O)c4c(C)noc4C)cc3C(=O)N([C@@H](C)CO)C[C@H]2C)cc1`, the relative growth was inactive: 0.979.
Regarding `Cc1ccc(S(=O)(=O)Nc2ccc3c(c2)C(=O)N([C@H](C)CO)C[C@@H](C)[C@@H](CN(C)S(=O)(=O)c2ccc(Cl)cc2)OCCCC[C@@H](C)O3)cc1`, the relative growth was inactive: 1.04.
For `C[C@@H]1CN([C@H](C)CO)C(=O)c2c(c3ccccc3n2C)-c2ccccc2CO[C@H]1CN(C)C(=O)NC1CCCCC1` the value was inactive: 1.02; for `COc1ccc(S(=O)(=O)N(C)C[C@@H]2Oc3ccc(NS(C)(=O)=O)cc3CC(=O)N([C@@H](C)CO)C[C@@H]2C)cc1`, inactive: 1.02.
For `C[C@H]1CN([C@@H](C)CO)C(=O)c2cc(NC(=O)Nc3ccccc3)ccc2O[C@@H]1CN(C)Cc1ccc(Cl)c(Cl)c1` the value was inactive: 1.06; for `COc1ccc(CN(C)C[C@H]2OCCCC[C@H](C)Oc3ccc(NC(=O)Cc4ccccc4)cc3C(=O)N([C@@H](C)CO)C[C@@H]2C)cc1`, inactive: 0.997.
For `CN(C)CC(=O)N[C@@H]1CC[C@H](CCNC(=O)C2CCC2)O[C@H]1CO` the value was inactive: 1.01; for `C[C@H]1NC(=O)[C@H](Cc2ccccc2)NC(=O)[C@@]23C(=O)N[C@@H](Cc4ccccc4)[C@@H]2[C@H](C)[C@@]2(C)O[C@H]2[C@H]3/C=C/C/C=C\CNC1=O`, inactive: 1.01.
For `Cc1noc(C)c1S(=O)(=O)Nc1ccc2c(c1)C(=O)N([C@@H](C)CO)C[C@@H](C)[C@@H](CN(C)C(=O)Nc1cccc3ccccc13)OCCCC[C@@H](C)O2`, the relative growth is inactive: 1.04.
Take `C[C@@H]1CN([C@@H](C)CO)C(=O)Cc2cc(NC(=O)Cc3ccccc3)ccc2O[C@H]1CN(C)Cc1ccc(C(F)(F)F)cc1`: the relative growth was inactive: 1.
Under `CC[C@H](C)[C@@H]([C@@H](CC(=O)N1CCC[C@H]1[C@H](OC)[C@@H](C)C(=O)N[C@@H](Cc1ccccc1)c1nccs1)OC)N(C)C(=O)[C@@H](NC(=O)[C@H](C(C)C)N(C)C)C(C)C` stands inactive: 1.06; under `COCCNC(=O)C[C@@H]1CC[C@@H]2[C@H](COC[C@H](O)CN2C(=O)Nc2ccc3c(c2)OCO3)O1`, inactive: 0.977; under `Nc1nc2nc[nH]c2c(=O)[nH]1`, inactive: 0.961.
As to `O=C(C[C@@H]1CC[C@@H]2[C@H](COC[C@H](O)CN2C(=O)Nc2ccc(Cl)cc2)O1)NC1Cc2ccccc2C1`, the relative growth was inactive: 0.968.
On to `CC(C)C[C@H](NC(=O)[C@H]1O[C@@H]1C(=O)O)C(=O)NCCCCNC(=N)N`, for which the relative growth is inactive: 1.01.
As to `C[C@H]1CCCCO[C@@H](CN(C)C(=O)c2ccccc2)[C@@H](C)CN([C@@H](C)CO)C(=O)c2cc(NS(=O)(=O)c3cccs3)ccc2O1`, the relative growth is inactive: 0.98.
Take `CCOc1ccc(Nc2c3ccccc3nc3ccccc23)cc1`: the relative growth was inactive: 0.671.
For the molecule `C[C@@H]1CN([C@@H](C)CO)C(=O)c2cc(NC(=O)Nc3ccccc3)ccc2O[C@@H](C)CCCCO[C@@H]1CN(C)Cc1ccc(C(F)(F)F)cc1`, the relative growth was inactive: 1.06.
Under `C[C@H](CO)N1C[C@H](C)[C@@H](CN(C)S(=O)(=O)c2cccs2)Oc2c(NC(=O)Cn3cnnn3)cccc2C1=O` stands inactive: 0.999.
